Assay results reported in PubChem BioAssay (NCI).
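Where inhibition never reached the appropriate level, the endpoint shown equals the highest concentration tested. Otherwise, values were interpolated linearly from a five-concentration, 48-hour dose response in 96-well plates. Abbreviation: GI50, concentration required for 50% inhibition of growth.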 Not every entry of the source has a single result; some have several. Only these are listed. The source may hold further records. For some of these results: Values that stand side by side repeat one measurement (runs, samples, wells, individuals or studies). Marks in square brackets tell the records apart. A, B and so on number the origins entry by entry.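 Definition used: TGI = concentration required for complete inhibition of growth.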 For some of these results: Records of one sample usually come from different ranges of test concentrations, not given here; some values may only mark the edge of a range.

Tests used:
Test in all cases: inhibition of tumour cell growth, NCI panel, 48 h
K-562 leukemia = test system: K-562 leukemia
NCI-H522 lung = test system: NCI-H522 lung
NCI-H226 lung = test system: NCI-H226 lung
OVCAR-4 ovarian = test system: OVCAR-4 ovarian
HCT-15 colon = test system: HCT-15 colon
UACC-257 melanoma = test system: UACC-257 melanoma
ACHN renal = test system: ACHN renal

CCn1cc(-c2ccnc3[nH]c(-c4cccc(CN(C)C)c4)cc23)c(-c2ccc(NC(=O)N(C)C)cc2)n1
GI50 (K-562 leukemia): 1.55 µM [sample A, mean of 2 tests] and 125 nM [sample B, 1 test] | GI50 (NCI-H522 lung): 1.98 µM [sample A, mean of 2 tests] and 171 nM [sample B, 1 test]

CCCCNCCCNCCCNC(=O)c1csc(-c2csc(CCNC(=O)C(NC(=O)C(C)C(O)C(C)NC(=O)C(NC(=O)c3nc(C(CC(N)=O)NCC(N)C(N)=O)nc(N)c3C)C(OC3OC(CO)C(O)C(O)C3OC3OC(CO)C(O)C(OC(N)=O)C3O)c3cnc[nH]3)C(C)O)n2)n1 (configuration not stated)
TGI (NCI-H226 lung): 1.4 µM and 15.6 µM | TGI (OVCAR-4 ovarian): 2.18 µM and 25.6 µM | TGI (HCT-15 colon): 7.88 µM and > 100 µM | TGI (UACC-257 melanoma): 3.93 µM and > 95.3 µM | TGI (ACHN renal): 5.05 µM and 172 nM
